From PMC4560833
Results are given in words; binding and its absence hold for the method and conditions named. Binding seen in cells or lysates may run through a third protein. Some results given as binding are weak or reduced against the parent protein; the word gives no strength. Tags and fused reporters may be left off the sequences shown. Values belong to the binder of their own block, whether it stands above or below them.

Tests used:
Assay in all cases: co-IP; HEK293T cells transiently transfected; lysis buffer 20 mM Tris-HCl pH 7.5, 137 mM NaCl, 5 mM EDTA, 1% NP-40, 10% glycerol; antibody overnight at 4 °C, protein A/G agarose, immunoblot; in Fig. 4e cells in normal medium, LD medium or LD medium with 25-HC
[1] = target: T1, Myc-tagged Scap (SREBP cleavage-activating protein) (UniProt Q12770)
T1 sequence: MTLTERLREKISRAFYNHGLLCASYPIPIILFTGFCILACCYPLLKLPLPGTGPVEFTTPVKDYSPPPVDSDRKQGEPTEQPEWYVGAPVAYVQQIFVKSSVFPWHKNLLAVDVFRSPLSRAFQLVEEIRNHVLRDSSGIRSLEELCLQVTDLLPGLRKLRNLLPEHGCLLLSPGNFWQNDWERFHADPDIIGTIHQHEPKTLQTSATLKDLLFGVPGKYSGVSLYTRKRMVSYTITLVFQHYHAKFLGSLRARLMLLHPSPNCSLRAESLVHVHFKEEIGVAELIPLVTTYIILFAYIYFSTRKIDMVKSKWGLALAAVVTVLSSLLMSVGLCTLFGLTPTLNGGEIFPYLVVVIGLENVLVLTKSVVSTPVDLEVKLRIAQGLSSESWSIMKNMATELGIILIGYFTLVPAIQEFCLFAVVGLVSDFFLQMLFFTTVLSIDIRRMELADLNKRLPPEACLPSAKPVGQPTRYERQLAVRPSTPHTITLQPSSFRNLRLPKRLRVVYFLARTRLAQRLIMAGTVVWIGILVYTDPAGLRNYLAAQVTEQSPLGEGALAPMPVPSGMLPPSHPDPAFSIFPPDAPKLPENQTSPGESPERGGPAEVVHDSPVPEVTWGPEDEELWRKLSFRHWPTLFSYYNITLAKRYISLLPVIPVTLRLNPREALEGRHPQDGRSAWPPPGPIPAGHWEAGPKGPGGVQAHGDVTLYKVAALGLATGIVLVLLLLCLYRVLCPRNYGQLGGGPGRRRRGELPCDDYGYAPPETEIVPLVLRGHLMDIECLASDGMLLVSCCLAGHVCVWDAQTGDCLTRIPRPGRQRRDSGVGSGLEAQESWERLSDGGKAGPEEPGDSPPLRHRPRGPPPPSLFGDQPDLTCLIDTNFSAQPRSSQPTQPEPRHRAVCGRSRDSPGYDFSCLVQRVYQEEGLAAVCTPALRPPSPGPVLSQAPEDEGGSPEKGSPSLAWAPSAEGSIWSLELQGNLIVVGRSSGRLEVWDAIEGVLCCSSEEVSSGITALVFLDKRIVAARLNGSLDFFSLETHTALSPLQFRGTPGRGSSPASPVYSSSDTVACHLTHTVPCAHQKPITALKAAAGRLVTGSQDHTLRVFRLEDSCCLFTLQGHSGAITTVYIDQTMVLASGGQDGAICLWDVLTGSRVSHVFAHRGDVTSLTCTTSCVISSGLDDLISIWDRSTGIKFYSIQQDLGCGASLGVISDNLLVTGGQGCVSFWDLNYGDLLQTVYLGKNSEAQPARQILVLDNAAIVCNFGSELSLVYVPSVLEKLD

Flag-tagged SREBP-2 = target: T2, Flag-tagged SREBP-2 (UniProt Q12772)
T2 sequence: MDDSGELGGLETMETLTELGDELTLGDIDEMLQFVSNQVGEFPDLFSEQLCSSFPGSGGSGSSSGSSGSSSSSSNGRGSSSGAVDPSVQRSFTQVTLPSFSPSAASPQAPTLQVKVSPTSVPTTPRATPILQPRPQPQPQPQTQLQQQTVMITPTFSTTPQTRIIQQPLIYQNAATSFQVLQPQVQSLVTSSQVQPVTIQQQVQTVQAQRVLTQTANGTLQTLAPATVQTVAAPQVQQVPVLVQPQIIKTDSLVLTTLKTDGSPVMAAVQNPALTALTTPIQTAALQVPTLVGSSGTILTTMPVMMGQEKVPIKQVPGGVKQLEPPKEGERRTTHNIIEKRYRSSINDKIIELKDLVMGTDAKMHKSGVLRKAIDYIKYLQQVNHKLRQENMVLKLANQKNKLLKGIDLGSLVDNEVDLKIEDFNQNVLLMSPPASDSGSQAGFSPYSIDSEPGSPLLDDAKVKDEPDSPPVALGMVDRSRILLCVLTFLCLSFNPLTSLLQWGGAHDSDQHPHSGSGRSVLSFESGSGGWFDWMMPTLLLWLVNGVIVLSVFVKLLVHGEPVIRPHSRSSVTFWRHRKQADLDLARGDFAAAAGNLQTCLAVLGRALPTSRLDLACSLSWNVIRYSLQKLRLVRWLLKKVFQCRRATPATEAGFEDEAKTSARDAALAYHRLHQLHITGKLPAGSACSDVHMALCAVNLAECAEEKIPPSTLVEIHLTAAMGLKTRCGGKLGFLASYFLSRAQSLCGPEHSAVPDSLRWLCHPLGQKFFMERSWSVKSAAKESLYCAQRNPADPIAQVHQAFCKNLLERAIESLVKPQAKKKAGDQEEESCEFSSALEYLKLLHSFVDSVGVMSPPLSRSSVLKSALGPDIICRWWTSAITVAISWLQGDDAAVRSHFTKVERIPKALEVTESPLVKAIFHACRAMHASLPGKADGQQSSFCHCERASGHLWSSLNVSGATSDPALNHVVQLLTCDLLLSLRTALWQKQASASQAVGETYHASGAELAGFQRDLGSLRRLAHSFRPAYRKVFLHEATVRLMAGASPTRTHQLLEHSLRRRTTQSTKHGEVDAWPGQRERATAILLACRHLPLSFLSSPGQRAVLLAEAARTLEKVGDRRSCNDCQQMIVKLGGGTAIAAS

[2] = target: T3, PAQR3 (progestin and adipoQ receptors 3), overexpressed (UniProt Q6TCH7)
T3 sequence: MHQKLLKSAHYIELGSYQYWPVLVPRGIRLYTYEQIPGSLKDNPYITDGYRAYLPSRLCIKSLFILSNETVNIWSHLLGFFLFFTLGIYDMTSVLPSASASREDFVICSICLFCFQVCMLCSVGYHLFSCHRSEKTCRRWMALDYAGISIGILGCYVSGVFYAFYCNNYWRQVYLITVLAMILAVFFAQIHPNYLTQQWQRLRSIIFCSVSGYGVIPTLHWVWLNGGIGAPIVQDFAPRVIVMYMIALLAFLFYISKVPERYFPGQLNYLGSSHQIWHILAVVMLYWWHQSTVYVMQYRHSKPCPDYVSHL

[3] = target: T4, Insig-1 cloned into p3Xflag-CMV-10 (UniProt O15503)
T4 sequence: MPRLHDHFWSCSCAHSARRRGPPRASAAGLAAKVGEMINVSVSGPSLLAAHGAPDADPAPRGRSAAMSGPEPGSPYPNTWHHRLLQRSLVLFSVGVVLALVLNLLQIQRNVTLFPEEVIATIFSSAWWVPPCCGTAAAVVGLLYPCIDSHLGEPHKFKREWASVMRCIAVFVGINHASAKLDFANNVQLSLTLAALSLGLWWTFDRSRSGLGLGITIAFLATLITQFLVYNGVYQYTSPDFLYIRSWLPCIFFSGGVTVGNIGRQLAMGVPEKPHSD

binding [1]: binds
binding (Flag-tagged SREBP-2): no binding
B1: PAQR3 with deletion of amino acid residues 1–20 (domain or fragment, UniProt Q6TCH7 21-311)
chain: PVLVPRGIRLYTYEQIPGSLKDNPYITDGYRAYLPSRLCIKSLFILSNETVNIWSHLLGFFLFFTLGIYDMTSVLPSASASREDFVICSICLFCFQVCMLCSVGYHLFSCHRSEKTCRRWMALDYAGISIGILGCYVSGVFYAFYCNNYWRQVYLITVLAMILAVFFAQIHPNYLTQQWQRLRSIIFCSVSGYGVIPTLHWVWLNGGIGAPIVQDFAPRVIVMYMIALLAFLFYISKVPERYFPGQLNYLGSSHQIWHILAVVMLYWWHQSTVYVMQYRHSKPCPDYVSHL

binding [1]: binds
binding (Flag-tagged SREBP-2): no binding
B2: PAQR3 with deletion of amino acid residues 1–40 (domain or fragment, UniProt Q6TCH7 41-311)
chain: KDNPYITDGYRAYLPSRLCIKSLFILSNETVNIWSHLLGFFLFFTLGIYDMTSVLPSASASREDFVICSICLFCFQVCMLCSVGYHLFSCHRSEKTCRRWMALDYAGISIGILGCYVSGVFYAFYCNNYWRQVYLITVLAMILAVFFAQIHPNYLTQQWQRLRSIIFCSVSGYGVIPTLHWVWLNGGIGAPIVQDFAPRVIVMYMIALLAFLFYISKVPERYFPGQLNYLGSSHQIWHILAVVMLYWWHQSTVYVMQYRHSKPCPDYVSHL

binding [1]: no binding
binding (Flag-tagged SREBP-2): no binding
B3: PAQR3 with deletion of amino acid residues 1–60 (domain or fragment, UniProt Q6TCH7 61-311)
chain: KSLFILSNETVNIWSHLLGFFLFFTLGIYDMTSVLPSASASREDFVICSICLFCFQVCMLCSVGYHLFSCHRSEKTCRRWMALDYAGISIGILGCYVSGVFYAFYCNNYWRQVYLITVLAMILAVFFAQIHPNYLTQQWQRLRSIIFCSVSGYGVIPTLHWVWLNGGIGAPIVQDFAPRVIVMYMIALLAFLFYISKVPERYFPGQLNYLGSSHQIWHILAVVMLYWWHQSTVYVMQYRHSKPCPDYVSHL

binding [1]: binds
binding [2]: no binding
B4: Insig-1 cloned into p3Xflag-CMV-10 (protein, UniProt O15503 1-277)
chain: T4 sequence

binding [1]: binds
binding (Flag-tagged SREBP-2): binds
binding [3]: no binding
B5: PAQR3 (progestin and adipoQ receptors 3), overexpressed (protein, UniProt Q6TCH7 1-311)
chain: T3 sequence
